Source: PubChem BioAssay AID886 (National Center for Advancing Translational Sciences (NCATS), 2007)
In all, about 73,000 compounds went through this assay and about 2,500 (3.4%) were called active. Inconclusive means that the source gave no clear call. Such entries were picked first, then a sample of the others. The call rests on the fitted dose curve; in most records, active means well fitted inhibition curve with a large enough effect; inconclusive means small, poorly fitted or top-dose-only effect; inactive means no such curve, though single readings can be large or run the other way. Where the call is inconclusive, the potency comes from a doubtful curve fit.

The molecules below were run against 3-hydroxyacyl-CoA dehydrogenase type-2 (Homo sapiens) (UniProt Q99714) (assay: qHTS Assay for Inhibitors of HADH2 (Hydroxyacyl-Coenzyme A Dehydrogenase, Type II)). Conditions: recombinant HADH2, NADH fluorescence, beta-hydroxybutyryl-CoA; activity change, negative = inhibition: at 57.1 µM (top of the series).
Description: Assay Overview: NIH Molecular Libraries Screening Centers Network [MLSCN] NIH Chemical Genomics Center [NCGC] Structural Genomics Consortium [SGC] Grant Number: None HADH2: Hydroxyacyl-Coenzyme A dehydrogenase, type II, was supplied by researchers at the Structural Genomics Consortium, Oxford University lab (PI Udo Oppermann). The mitochondrial enzyme 17-hydroxysteroid dehydrogenase type 10 (HSD17-10) previously classified as type II hydroxyacyl-CoA dehydrogenase (HADH2) catalyzes the NAD+ dependent oxidation of a variety of substrates including acyl-CoAs, androgens and neurosteroids as well as bile acids(Shafqat N, Marschall HU, Filling C, et al. Biochemical Journal. 2003;376(Pt 1):49-60). The role in neurodegeneration by binding to amyloid-peptide led to its identification (Oppermann UC, et al FEBS Letters. 1999;451(3):238-242 and Yan SD, et al. Nature. 1997;389(6652):689-695), and mutations in its gene appear to be causative for 2-methyl-3-hydroxybutyryl-CoA dehydrogenase deficiency (Ofman R, et al. American Journal of Human Genetics. 2003;72(5):1300-1307). The enzyme was produced by E.coli fermentation as His-tagged recombinant for the purpose of X-ray structure determination, and had been mass-spectrometry characterized. Inhibition of HADH2 activity was screened by utilizing beta-hydroxybutyryl coenzyme A as an electron donor and NAD+ as an electron acceptor/cofactor. An increase in the fluorescence intensity due to conversion of NAD+ to NADH was used to measure the enzyme activity.
Assay Protocol: Buffer: 100 mM Tris-HCl pH 9.0, containing 0.01 % Tween-20. Reagents/Controls: Buffer in columns 3 and 4 as negative control (no enzyme). Substrate/cofactor solution: 1 mM NAD+ and 90 uM beta-hydroxybutyryl coenzyme A (Sigma-Aldrich, St. Louis, MO) final concentrations dispensed throughout the plate. Enzyme: 20 nM HADH2 final concentration in columns 1, 2, 5-48. Column 1 is neutral (100% activity). Column 2 contained titration of apomorphine (Sigma-Aldrich, A 4393, PubChem CID 2215, top concentration 500 uM, then 1:2 dilution in duplicate) Assay Steps: Three uL of enzyme were dispensed to 1536-well Greiner black solid bottom plates. Compounds and controls (23 nL) were transferred via Kalypsys PinTool. The plates were incubated for 15 min at room temperature, and then 1 uL of substrate/cofactor solution was added to start the reaction. The plates were immediately transferred to and read every 30 seconds for 4 min on ViewLux High-throughput CCD imager (Perkin-Elmer) using 360 nm excitation and 450 nm emission fluorescence protocol. The fluorescence intensity difference between the last and the first time points was used to compute reaction progress.
Further: nearly all actives have a fitted effect of over 60% in size.
On the % scale 0 is the no-effect control and ±100 the full control effect; potency means the concentration at half of the fitted maximal effect; tags describe the fitted curve by direction and shape.

UniProt Q99714, sequence (Q99714 whole entry, looked up): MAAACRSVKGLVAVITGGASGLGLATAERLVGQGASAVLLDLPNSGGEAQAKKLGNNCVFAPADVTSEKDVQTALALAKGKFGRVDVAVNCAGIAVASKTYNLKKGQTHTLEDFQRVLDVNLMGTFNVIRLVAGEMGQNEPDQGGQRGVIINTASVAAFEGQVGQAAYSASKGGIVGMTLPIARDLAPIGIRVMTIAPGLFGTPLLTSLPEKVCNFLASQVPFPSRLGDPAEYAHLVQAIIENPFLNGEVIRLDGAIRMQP
UniProt Q99714, sequence (Q99714 whole entry, looked up): as above

| SMILES | Potency | activity change, negative = inhibition |
| --- | --- | --- |
| O=[N+]([O-])c1cccc2c[nH]nc12 | active: 31.6 µM |  |
| Brc1ccccc1-c1nnc(-c2cccnc2)o1 |  | inactive: -1.96% |
| COc1ccc(CCNS(=O)(=O)c2ccc3c(c2)CCN3C(=O)CCC(=O)O)cc1OC |  | inactive: 3.04% |
| COc1cc(SC)ccc1C(=O)NCC1CCCO1 (stereo unspecified) |  | inactive: 1.78% |
| CC(C)N(Cc1ccccc1)S(=O)(=O)N(C)C |  | inactive: 5.03% |
| NS(=O)(=O)c1nc(S(=O)(=O)O)c2[nH]cnc2n1 | inconclusive: 6.31 µM [inhibitor, single point] |  |
| CCC(=O)Nc1c(C#N)c2nc3ccccc3nc2n1-c1ccccc1C | inconclusive: 39.8 µM [inhibitor, single point] |  |
| CCC1CCCCN1Cc1nc2c(c(=O)n(C)c(=O)n2C)n1CCCc1ccccc1 (stereo unspecified) | inconclusive: 3.98 µM [inhibitor, full curve] |  |
| CCOC(=O)c1[nH]c(CSc2nnnn2-c2ccccc2C)c(C(=O)OCC)c1C | inconclusive: 7.94 µM [inhibitor, single point] |  |
| Cc1ccc2cc(C(c3nnnn3C3CCCC3)N(Cc3ccccc3)Cc3ccco3)c(=O)[nH]c2c1 (stereo unspecified) |  | inactive: -6.31% |
| CC(=O)c1cccc(NC(=O)c2cc3nc(C)cc(C)n3n2)c1 | inconclusive: 25.1 µM [inhibitor, single point] |  |
| COc1ccc(Br)cc1/C=c1\sc2nc(-c3ccco3)nn2c1=O | active: 20 µM |  |
| CCOC(=O)N1CCN(C(=O)c2ccc(C)c(S(=O)(=O)Nc3ccccc3)c2)CC1 | inconclusive: 1 µM [inhibitor, full curve] |  |
| Cc1ccc(-c2[nH]n3c(=O)c4c(nc3c2C)CCCC4)cc1 | inconclusive: 20 µM [inhibitor, partial curve] |  |
| COC(=O)[C@@]1(Cc2ccccc2)[C@H]2c3cc(C(=O)N4CCCC4)n(Cc4ccc(O)c(OC)c4)c3C[C@H]2CN1C(=O)c1ccccc1 |  | inactive: -10.1% |
| Cc1nc(N)sc1-c1csc(Nc2ccccc2)n1 | active: 3.98 µM |  |
| N#Cc1c(SCC(N)=O)nc2c(c1-c1ccc(O)cc1)CCCC2 | inconclusive: 31.6 µM [inhibitor, single point] |  |
| COc1ccc2cc3cc(C(=O)NCCN4CCc5ccccc5C4)oc3nc2c1 | active: 7.94 µM |  |
| CCOC(=O)N1CCN(C(=O)c2ccc3c(=O)n(CCOC)c(=O)[nH]c3c2)CC1 | inconclusive: 31.6 µM [inhibitor, single point] |  |
| Cc1cccc(NC(=O)CN2C(=O)COc3ccc(Cl)cc32)c1C |  | inactive: 11.5% |
| CC(=O)N(c1ccc2oc(=O)sc2c1)S(=O)(=O)c1cccs1 | inconclusive: 31.6 µM [inhibitor, partial curve] |  |
